“And” between values parts separate entries of the source, which are not always exact repeats. Equal entries are not always repeated. In all, about 340,000 compounds went through this assay and about 12,000 (3.5%) were called active. The shares of active, inactive and inconclusive entries below differ from those in the screen. The call rests on the fitted dose curve; in most records, active means well fitted inhibition curve with a large enough effect; inconclusive means small, poorly fitted or top-dose-only effect, or another doubt; inactive means no such curve, though single readings can be large or run the other way. Potencies beside an inconclusive call are fits to weak or partial responses and may not hold up.
Assay: qHTS Assay for Inhibitors of Hepatitis C Virus (HCV)
Conditions: Huh7.5.1 HCVcc-Cre (HCVcc is cell-culture hepatitis C virus) infection, luciferase reporter, 44 h; series mostly up to 41.8 µM
Procedure, shortened: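 Cells seeded at 1,000/well and cultured 4 h, then compounds added followed by HCVcc-Cre virus (~0.5 moi). After 44 h further culture, luciferase substrate was added, plates held 15 min at room temperature, and luminescence read for 15 sec.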
Potency means the concentration at half of the fitted maximal effect; tags describe the fitted curve by direction and shape.

Compound | Potency
O=C(Cn1c(O)c(/C=C2\C=Nc3ccccc32)sc1=O)N1CCOCC1 | inconclusive: 25.1 µM [inhibitor, single point]
COC(=O)c1c(NC(=O)c2ccccc2)sc(C(N)=O)c1C | inconclusive: 14.1 µM [inhibitor, single point]
Cc1cc(-c2ccc(Cl)s2)n[nH]1 | inactive
COc1ccc(CNS(=O)(=O)c2ccc3c(c2)N(C)CCO3)cc1 | inconclusive: 11.2 µM [inhibitor, single point]
COc1ccc(OC)c(NC(=O)c2sc3ncnc(N4CCN(c5ccccn5)CC4)c3c2C)c1 | inconclusive: 7.08 µM [inhibitor, partial curve]
COc1ccc(/C=N/NC(=O)c2cccc(NC(=O)c3ccc(F)cc3)c2)c(C(=O)O)c1OC | inactive
OCCCc1nc2n(n1)C(c1ccccc1)C=C(c1ccc(F)cc1)N2 (configuration not stated) | active: 11.2 µM
Cn1cc(C(=O)OCC(=O)Nc2ccccc2)c2ccccc21 | inconclusive: 31.6 µM [inhibitor, single point]
Oc1c(N=Nc2ccccc2)sc2ccccc12 | inconclusive: 31.6 µM [inhibitor, single point]
COc1ccc(Nc2nc(N)nc(CSc3n[nH]c(-c4ccccc4)n3)n2)cc1 | inactive
CN1C(=O)/C(=C/c2ccc(Cl)s2)C(=O)NC1=S | inconclusive: 10 µM [inhibitor, single point]
COc1ccc(/C=C/c2onc(C)c2S(=O)(=O)N2CCC(C(=O)N3CCCCCC3)CC2)cc1 | inconclusive: 10 µM [inhibitor, partial curve]
CN(CC(=O)NC(=O)Nc1ccccc1F)Cc1ccccc1 | inactive
O=C(O)c1cccc(NC(=S)N/N=C/c2ccccc2OCc2ccc(Br)cc2)c1 | inconclusive: 22.4 µM [inhibitor, single point]
CCc1c(C)nc2c(-c3ccccc3)c(C)nn2c1Nc1ccc(NC(C)=O)cc1 | inconclusive: 31.6 µM [inhibitor, single point]
N#C/C(=C/c1ccc(N2CCOCC2)o1)C(=O)NC1CCCCC1 | inconclusive: 31.6 µM [inhibitor, single point]
COc1cc(CN(C2CCCCC2C)S(=O)(=O)c2ccc(S(=O)(=O)NC3CC3)cc2)cc(OC)c1OC (configuration not stated) | inactive
COC(=O)C1=C(c2ccccc2OCc2ccccc2)C[C@@H]2CC[C@H]1N2C(=O)NCCOc1ccccc1Cl | inconclusive: 8.91 µM [inhibitor, single point]
Cc1cc(S(=O)(=O)Nc2cc(C)c(O)c(C)c2)c(C)s1 | inconclusive: 2.24 µM [inhibitor, full curve]
O=C(Cn1c(=O)c2sccc2n(Cc2cccc([N+](=O)[O-])c2)c1=O)NCCc1ccccc1 | inconclusive: 31.6 µM [inhibitor, single point]
CCOC(=O)C1C(C(=O)OC)=C(C2=CCCCC2)c2ccccc2N1S(=O)(=O)C(F)(F)F (configuration not stated) | inconclusive: 2.24 µM [inhibitor, partial curve]

Compound | Potency
CCn1c(=O)c2cc(C(=O)NCCN(C)C)sc2c2ccccc21 | active: 10 µM
CCc1cc(SC#N)cc(C)c1NC(=O)CCl | inconclusive: 22.4 µM [inhibitor, single point]
COc1ccccc1CC(=O)Nc1ccc(NC(=O)c2cccs2)cc1 | inconclusive: 8.91 µM [inhibitor, partial curve, poor fit]
Nc1nc(NCCOCCO)nc(Nc2cccc(F)c2)c1[N+](=O)[O-] | inconclusive: 10 µM [inhibitor, partial curve, poor fit]
COc1ccc(C)cc1NC(=O)C(OC(=O)C1=NNC(=O)CC1)c1ccccc1 (configuration not stated) | inconclusive: 10 µM [inhibitor, partial curve]
Cc1cc(C)cc(OCCCCCNCCO)c1 | inconclusive: 7.94 µM [inhibitor, partial curve]
O=C(N/N=C/c1ccc(-c2cccc(C(F)(F)F)c2)o1)c1cccc(F)c1 | inconclusive: 10 µM [inhibitor, partial curve]
CNS(=O)(=O)c1cccc(C(=O)OCC(=O)c2cc3ccccc3o2)c1 | inconclusive: 1.12 µM [inhibitor, full curve, poor fit]
CCOc1ccc(CN(C)C(=O)c2ccc(S(=O)(=O)N(C)c3ccccc3OC)cc2)cc1 | active: 11.2 µM
CN(C)c1ccc(C=c2c3ccccc3n3c2c2c([n+]3C)CCCC2)cc1 | inconclusive: 1.12 µM [inhibitor, full curve]
N#Cc1ccc(CN2CCN(C(=O)c3cc(C4CC4)nn3-c3ccccc3)CC2)cc1 | inconclusive: 15.8 µM [inhibitor, single point]
COc1cc(COCC(O)CN2CCN(CCN3C(=O)c4cccc5cccc(c45)C3=O)CC2)cc(OC)c1OC (configuration not stated) | active: 3.55 µM
COC(=O)c1c(C(=O)OC)c2cc(C)ccn2c1Cl | inconclusive: 31.6 µM [inhibitor, single point]
NS(=O)(=O)c1ccc(NC(=O)CCCCCN2C(=O)c3ccccc3C2=O)cc1 | inactive
COc1ccc(N(C)S(=O)(=O)c2cccc(C(=O)NC3CCCCC3C)c2)cc1 (configuration not stated) | inconclusive: 10 µM [inhibitor, partial curve]
Cn1cccc1Cc1nnc(SCC(=O)Nc2cccc(F)c2)n1CCc1ccccc1 | inactive and inconclusive: 25.1 µM [inhibitor, single point]
CCOC(=O)c1ccc(NC(=O)CN(C)S(=O)(=O)c2ccc(Br)s2)cc1 | inactive
Cc1ccc(-c2cnc3n2CCCCC3)cc1 | inconclusive: 11.2 µM [inhibitor, single point]
Cc1cc(Br)c(NC(=O)COC(=O)C2CCCCC2)c(Br)c1 | inactive
CCc1ccc(-c2nc(CN3CCC(C(=O)NCc4ccco4)CC3)c(C)o2)cc1 | inconclusive: 22.4 µM [inhibitor, single point]
N/C(=N/OC(=O)c1ccc(Cl)cc1)c1ncc([N+](=O)[O-])s1 | inconclusive: 31.6 µM [inhibitor, single point]
